# Experimental data reported in the supplement of paper PMC8728848.
# Some of the results follow.
# B1: PFL (Pseudomonas fluorescens) (protein)
# chain: MSKYAVANQWGGSSAPWHPGGTWVLGARDNQNVVAIEIKSGDGGKSFTGTMTYAGEGPIGFKAQRTGQNQYNVENQWGGNDAPWHPGGKWVIGGRDNQNVIALSVTSSDGGKNLSGTNTYANEGPIGFRGQIE
# Experiments:
# Assay in all cases: glycan array binding signal (z-score within array); higher = stronger binding
# Settings in all cases: glycan notation: IUPAC condensed, linker removed
# [1] = target: GlcNAc(b1-4)GlcNAc(b1-4)GlcNAc(b1-4)GlcNAc(b1-4)GlcNAc
# In short: (§1)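 Arrays were curated from the Consortium for Functional Glycomics database, 3228 in total, and kept only where the protein sequence was available. Binding is expressed as a within-array Z-score. This score was averaged across arrays of the same protein sequence at different concentrations or buffers and across linkers, and negative values can be read as non-binding.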
# [2] = target: GlcNAc(b1-4)GlcNAc(b1-4)GlcNAc(b1-4)GlcNAc(b1-4)GlcNAc(b1-4)GlcNAc
# In short: as §1
# [3] = target: GlcNAc(b1-4)[GlcNAc(b1-6)]GalNAc
# In short: as §1
# [4] = target: GlcNAc(b1-6)Gal(b1-4)GlcNAc
# In short: as §1
# GlcNAc(b1-6)GalNAc = target: GlcNAc(b1-6)GalNAc
# In short: as §1
# [5] = target: GlcNAc6S(b1-3)Gal(b1-4)GlcNAc
# In short: as §1
# Kdn(a2-3)Gal(b1-3)GalNAc = target: Kdn(a2-3)Gal(b1-3)GalNAc
# In short: as §1
# Kdn(a2-3)Gal(b1-3)GlcNAc = target: Kdn(a2-3)Gal(b1-3)GlcNAc
# In short: as §1
# Kdn(a2-3)Gal(b1-4)Glc = target: Kdn(a2-3)Gal(b1-4)Glc
# In short: as §1
# Kdn(a2-3)Gal(b1-4)GlcNAc = target: Kdn(a2-3)Gal(b1-4)GlcNAc
# In short: as §1
# [6] = target: Kdn(a2-3)Gal(b1-4)[Fuc(a1-3)]GlcNAc
# In short: as §1
# Kdn(a2-6)Gal(b1-4)GlcNAc = target: Kdn(a2-6)Gal(b1-4)GlcNAc
# In short: as §1
# [7] = target: Man(a1-2)Man(a1-2)Man(a1-3)Man
# In short: as §1
# [8] = target: Man(a1-2)Man(a1-2)Man(a1-6)[Man(a1-3)]Man
# In short: as §1
# Man(a1-2)Man(a1-3)Man = target: Man(a1-2)Man(a1-3)Man
# In short: as §1
# [9] = target: Man(a1-2)Man(a1-3)[Man(a1-2)Man(a1-6)]Man
# In short: as §1
# [10] = target: Man(a1-2)Man(a1-3)[Man(a1-2)Man(a1-6)]Man(a1-6)[Man(a1-2)Man(a1-2)Man(a1-3)]Man
# In short: as §1
# [11] = target: Man(a1-2)Man(a1-3)[Man(a1-2)Man(a1-6)]Man(a1-6)[Man(a1-2)Man(a1-2)Man(a1-3)]Man(b1-4)GlcNAc(b1-4)GlcNAc
# In short: as §1
# [12] = target: Man(a1-2)Man(a1-3)[Man(a1-6)]Man(a1-6)[Man(a1-2)Man(a1-3)]Man(b1-4)GlcNAc(b1-4)GlcNAc
# In short: as §1
# [13] = target: Man(a1-2)Man(a1-6)[Man(a1-3)]Man(a1-6)[Man(a1-2)Man(a1-2)Man(a1-3)]Man
# In short: as §1
# [14] = target: Man(a1-2)Man(a1-6)[Man(a1-3)]Man(a1-6)[Man(a1-2)Man(a1-2)Man(a1-3)]Man(b1-4)GlcNAc(b1-4)GlcNAc
# In short: as §1
# Man(a1-3)[Man(a1-6)]Man = target: Man(a1-3)[Man(a1-6)]Man
# In short: as §1
# [15] = target: Man(a1-3)[Man(a1-6)]Man(a1-6)[Man(a1-2)Man(a1-3)]Man(b1-4)GlcNAc(b1-4)GlcNAc
# In short: as §1
# [16] = target: Man(a1-3)[Man(a1-6)]Man(a1-6)[Man(a1-3)]Man
# In short: as §1
# [17] = target: Man(a1-3)[Man(a1-6)]Man(a1-6)[Man(a1-3)]Man(b1-4)GlcNAc(b1-4)GlcNAc
# In short: as §1
# [18] = target: Man(a1-3)[Man(a1-6)]Man(b1-4)GlcNAc(b1-4)GlcNAc
# In short: as §1
# [19] = target: Man(a1-3)[Man(a1-6)]Man(b1-4)GlcNAc(b1-4)[Fuc(a1-6)]GlcNAc
# In short: as §1
# Man(a1-6)Man = target: Man(a1-6)Man
# In short: as §1
# Man(b1-4)GlcNAc = target: Man(b1-4)GlcNAc
# In short: as §1
# MurNAc(b1-4)GlcNAc = target: MurNAc(b1-4)GlcNAc
# In short: as §1
# Neu5Ac(a2-3)Gal = target: Neu5Ac(a2-3)Gal
# In short: as §1
# [20] = target: Neu5Ac(a2-3)Gal(b1-3)GalNAc
# In short: as §1
# [21] = target: Neu5Ac(a2-3)Gal(b1-3)GalNAc(b1-3)Gal(a1-4)Gal(b1-4)Glc
# In short: as §1
# [22] = target: Neu5Ac(a2-3)Gal(b1-3)GalNAc(b1-4)[Neu5Ac(a2-3)]Gal(b1-4)Glc
# In short: as §1
# [23] = target: Neu5Ac(a2-3)Gal(b1-3)GalNAc(b1-4)[Neu5Ac(a2-8)Neu5Ac(a2-3)]Gal(b1-4)Glc
# In short: as §1
# [24] = target: Neu5Ac(a2-3)Gal(b1-3)GalNAc6S
# In short: as §1
# [25] = target: Neu5Ac(a2-3)Gal(b1-3)GlcNAc
# In short: as §1
# [26] = target: Neu5Ac(a2-3)Gal(b1-3)GlcNAc(b1-2)Man
# In short: as §1
# [27] = target: Neu5Ac(a2-3)Gal(b1-3)GlcNAc(b1-2)Man(a1-3)[GlcNAc(b1-4)][Neu5Ac(a2-3)Gal(b1-3)GlcNAc(b1-2)Man(a1-6)]Man(b1-4)GlcNAc(b1-4)GlcNAc
# In short: as §1
# [28] = target: Neu5Ac(a2-3)Gal(b1-3)GlcNAc(b1-2)Man(a1-3)[Neu5Ac(a2-3)Gal(b1-3)GlcNAc(b1-2)Man(a1-6)]Man(b1-4)GlcNAc(b1-4)GlcNAc
# In short: as §1
# [29] = target: Neu5Ac(a2-3)Gal(b1-3)GlcNAc(b1-3)Gal(b1-3)GlcNAc
# In short: as §1
# [30] = target: Neu5Ac(a2-3)Gal(b1-3)GlcNAc(b1-3)Gal(b1-4)GlcNAc
# In short: as §1
# [31] = target: Neu5Ac(a2-3)Gal(b1-3)GlcNAc(b1-3)GalNAc
# In short: as §1
# [32] = target: Neu5Ac(a2-3)Gal(b1-3)GlcNAc(b1-4)Gal(b1-4)Glc
# In short: as §1
# [33] = target: Neu5Ac(a2-3)Gal(b1-3)GlcNAc(b1-6)GalNAc
# In short: as §1
binder,measurement,setting,value
B1,glycan array binding signal (z-score),[1],-0.118
same,glycan array binding signal (z-score),[2],-0.118
same,glycan array binding signal (z-score),[3],-0.116
same,glycan array binding signal (z-score),[4],-0.117
same,glycan array binding signal (z-score),GlcNAc(b1-6)GalNAc,-0.111
same,glycan array binding signal (z-score),[5],-0.113
same,glycan array binding signal (z-score),Kdn(a2-3)Gal(b1-3)GalNAc,-0.056
same,glycan array binding signal (z-score),Kdn(a2-3)Gal(b1-3)GlcNAc,-0.117
same,glycan array binding signal (z-score),Kdn(a2-3)Gal(b1-4)Glc,-0.101
same,glycan array binding signal (z-score),Kdn(a2-3)Gal(b1-4)GlcNAc,-0.107
same,glycan array binding signal (z-score),[6],-0.115
same,glycan array binding signal (z-score),Kdn(a2-6)Gal(b1-4)GlcNAc,-0.11
same,glycan array binding signal (z-score),[7],-0.115
same,glycan array binding signal (z-score),[8],-0.085
same,glycan array binding signal (z-score),Man(a1-2)Man(a1-3)Man,-0.105
same,glycan array binding signal (z-score),[9],-0.117
same,glycan array binding signal (z-score),[10],-0.112
same,glycan array binding signal (z-score),[11],3.46
same,glycan array binding signal (z-score),[12],9.19
same,glycan array binding signal (z-score),[13],-0.009
same,glycan array binding signal (z-score),[14],11.7
same,glycan array binding signal (z-score),Man(a1-3)[Man(a1-6)]Man,-0.112
same,glycan array binding signal (z-score),[15],13.2
same,glycan array binding signal (z-score),[16],7.17
same,glycan array binding signal (z-score),[17],10.9
same,glycan array binding signal (z-score),[18],-0.097
same,glycan array binding signal (z-score),[19],0.258
same,glycan array binding signal (z-score),Man(a1-6)Man,-0.113
same,glycan array binding signal (z-score),Man(b1-4)GlcNAc,-0.114
same,glycan array binding signal (z-score),MurNAc(b1-4)GlcNAc,-0.116
same,glycan array binding signal (z-score),Neu5Ac(a2-3)Gal,-0.119
same,glycan array binding signal (z-score),[20],-0.114
same,glycan array binding signal (z-score),[21],-0.116
same,glycan array binding signal (z-score),[22],-0.115
same,glycan array binding signal (z-score),[23],-0.108
same,glycan array binding signal (z-score),[24],-0.114
same,glycan array binding signal (z-score),[25],-0.117
same,glycan array binding signal (z-score),[26],-0.036
same,glycan array binding signal (z-score),[27],-0.071
same,glycan array binding signal (z-score),[28],-0.106
same,glycan array binding signal (z-score),[29],-0.115
same,glycan array binding signal (z-score),[30],-0.114
same,glycan array binding signal (z-score),[31],-0.107
same,glycan array binding signal (z-score),[32],-0.108
same,glycan array binding signal (z-score),[33],-0.112
